Test results: publication PMC4336329 (PLoS ONE, 2015)
Screen size: about 310,000 compounds; about 2,200 (0.71%) showed an effect of 50% or more. Effects have a minus sign here. The list shows a part of the results.

Molecular target: human ether-à-go-go-related gene (hERG) potassium channel (human, UniProt Q12809)
Assay: primary screen, population patch clamp on CHO cells stably expressing hERG

human ether-à-go-go-related gene (hERG) potassium channel, sequence (Q12809 whole entry, looked up): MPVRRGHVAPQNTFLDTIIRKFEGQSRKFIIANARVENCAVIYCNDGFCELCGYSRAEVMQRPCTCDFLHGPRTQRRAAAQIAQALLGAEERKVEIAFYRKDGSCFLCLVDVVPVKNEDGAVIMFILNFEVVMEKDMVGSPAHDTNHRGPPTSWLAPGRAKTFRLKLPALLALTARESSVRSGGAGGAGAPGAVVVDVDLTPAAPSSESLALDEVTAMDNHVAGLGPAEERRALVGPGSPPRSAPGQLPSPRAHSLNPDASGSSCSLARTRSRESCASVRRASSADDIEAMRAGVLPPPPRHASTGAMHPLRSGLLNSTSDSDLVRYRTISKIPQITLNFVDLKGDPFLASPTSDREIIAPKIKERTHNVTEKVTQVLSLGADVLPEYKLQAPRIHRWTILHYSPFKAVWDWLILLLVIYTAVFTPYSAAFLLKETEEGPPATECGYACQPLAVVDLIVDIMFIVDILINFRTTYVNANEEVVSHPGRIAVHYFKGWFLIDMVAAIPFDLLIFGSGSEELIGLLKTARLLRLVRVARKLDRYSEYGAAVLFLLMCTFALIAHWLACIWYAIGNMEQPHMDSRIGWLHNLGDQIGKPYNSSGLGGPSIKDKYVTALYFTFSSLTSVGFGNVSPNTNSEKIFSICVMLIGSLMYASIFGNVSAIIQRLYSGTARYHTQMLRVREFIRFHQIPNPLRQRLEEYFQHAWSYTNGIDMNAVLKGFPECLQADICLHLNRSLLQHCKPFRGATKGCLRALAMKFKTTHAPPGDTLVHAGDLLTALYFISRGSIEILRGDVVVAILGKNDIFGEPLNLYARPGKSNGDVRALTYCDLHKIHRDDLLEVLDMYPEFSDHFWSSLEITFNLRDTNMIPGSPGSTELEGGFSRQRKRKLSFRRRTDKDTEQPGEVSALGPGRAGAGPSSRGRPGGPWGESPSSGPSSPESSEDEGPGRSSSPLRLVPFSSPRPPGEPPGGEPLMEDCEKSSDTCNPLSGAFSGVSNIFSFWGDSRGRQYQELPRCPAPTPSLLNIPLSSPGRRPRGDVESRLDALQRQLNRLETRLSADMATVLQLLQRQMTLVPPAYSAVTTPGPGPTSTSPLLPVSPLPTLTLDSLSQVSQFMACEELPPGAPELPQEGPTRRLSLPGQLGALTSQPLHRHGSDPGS

SMILES	hERG current change (%, negative = inhibition) at 1uM
N#C/C(=C(O)\C=C\c1ccccc1)c1nc2ccccc2[nH]1	12.5%
COc1ccc2nc(NC(=O)Cn3cnc4ccccc4c3=O)sc2c1	10.5%
CCOC(=O)C1CCN(S(=O)(=O)c2c[nH]c(=O)[nH]c2=O)CC1	-11.5%
NNC(=S)Nc1ccc(S(=O)(=O)N2CCOCC2)cc1	12.3%
CC(=O)Sc1nc(-c2ccccc2)[nH]c1S(=O)(=O)c1ccc(C)cc1	0.575%
COc1cc2c(cc1OC)/C(=C/c1ccc(Br)cc1)C(=O)OC2	6.28%
Cc1cc(=O)oc2cc(OCCSCCN3CCOCC3)ccc12	13%
COc1ccc(NC(=O)CN2CCN(CC(=O)Nc3ccccc3Cl)CC2)c(OC)c1	-48%
COc1ccc(NC2CC(=O)NC2=O)cc1 (stereo not shown)	10.3%
CC1=C(/C=N/Nc2ccc([N+](=O)[O-])cc2[N+](=O)[O-])C(C)(C)CCC1	-2.48%
CCOC(=O)N1CCN(S(=O)(=O)N2CCCC(C(=O)NCCc3ccc(OCC)c(OCC)c3)C2)CC1 (stereo not shown)	3.78%
C/C(=N\NC(=O)c1ccccc1O)c1c(O)cc(C)oc1=O	-7.39%
CN(NC(=O)Nc1ccc(Cl)cc1)c1ncc(C(F)(F)F)cc1Cl	18.2%
COc1ccc(C(=O)CN2CCN(c3ccc(Cl)cc3)CC2)cc1OC	-4.47%
C[C@@H](NC(=O)[C@@H]1Cc2ccccc2CN1C(=O)OC(C)(C)C)C(=O)NCC1CCCO1 (stereo partly shown)	11.5%
CC(=O)c1ccc(OCC(O)CN2CCN(c3ccccn3)CC2)cc1.Cl (stereo not shown)	-7.47%
Cc1cc(C2(c3ccc(O)c(C)c3)OC(=O)c3ccccc32)ccc1O	1.18%
CCC(C)NC(=O)C1CCC(=O)N(c2cc(OC)c(OC)c(OC)c2)C1c1ccc(OC)cc1 (stereo not shown)	14.8%
CSc1ccccc1C(=O)C1CCCN(S(=O)(=O)c2c(C)noc2C)C1 (stereo not shown)	7.34%
COc1ccc(-c2cc3ccccc3oc2=O)cc1NC(=S)NC(=O)c1ccc2c(c1)OCCO2	7.18%
CN1CCN(C(=O)c2ccccc2NS(=O)(=O)c2ccc(F)cc2)CC1	11.4%
COc1ccc(-c2ccnc3c(Br)c(C)nn23)cc1	14.8%

SMILES	hERG current change (%, negative = inhibition) at 1uM
CC(C)NC(=O)COc1ccc2c(c1)C(=O)CC(C)(C)O2	16.3%
COc1ccc(-c2cc(=O)oc3cc(OCC(=O)NCCN4CCOCC4)ccc23)cc1	8.32%
O=C(COc1ccc2ccc(=O)oc2c1)NC1CCN(Cc2ccccc2)CC1	-34.1%
COc1cc(NC(=O)CN2CCN(c3ccccc3F)CC2)cc(OC)c1	7.72%
O=C(COc1ccc(Cl)cc1[N+](=O)[O-])N1CCCCC1	-2.84%
O=C1Nc2ccc(S(=O)(=O)N3CCCC3C(=O)O)c3cccc1c23 (stereo not shown)	19.5%
COc1cccc(CN(C)C(=O)C2CCC(=O)N(Cc3cccc(F)c3)C2)c1 (stereo not shown)	16.5%
CCCc1cc(-n2ccnc2C)n2c(nc3ccccc32)c1C#N	6.9%
O=[N+]([O-])c1cccc(C(=Nc2cccc(Cl)c2)NO)c1	5.8%
Cc1ccc(NC(=S)c2ccc3ccccc3n2)c(C)c1	19.8%
CCOc1ccccc1N1C(=O)CC(Sc2ncccc2C(=O)O)C1=O (stereo not shown)	16.3%
COc1cc(O)c(C(CCN2CCOCC2)c2ccc3c(c2)OCO3)c(OC)c1 (stereo not shown)	-45.7%
CC1=Nc2ccc(Br)cc2C(c2ccccc2)N1CC(=O)O (stereo not shown)	17.4%
COC(=O)c1cc2ccccc2n1Cc1ccc(Cl)nc1	12.1%
O=C(O)CN1C(=O)CC(Cc2ccccc2)C1=O (stereo not shown)	13.3%
CN(C)c1ccc(/C=C2\C(=N)N3C(=NC2=O)Sc2cc(S(C)(=O)=O)ccc23)cc1	14.8%
O=C1CC(NNc2nc3ccccc3s2)C(=O)N1c1ccccc1 (stereo not shown)	7.55%
O=C(/C=C/c1ccc(Cl)cc1Cl)Nc1cccc(S(=O)(=O)NC2=NCCCCC2)c1	0.0084%
CC(C)C(NC(=O)c1ccccc1)C(=O)OCc1cc([N+](=O)[O-])cc2c1OCOC2 (stereo not shown)	10.2%
Cl.NCC12CC3CC(C1)CC(c1ccc(Br)cc1)(C3)C2	8.66%
COC(=O)C1=C(c2ccc(F)cc2F)C[C@@H]2CC[C@H]1N2C(=O)NCc1ccc(C(F)(F)F)cc1	13.4%
COC(=O)c1nc2cc(C)ccn2c1F	4.83%

SMILES	hERG current change (%, negative = inhibition) at 1uM
COc1ccc(CCNC(=O)C2CCCN(C(=O)c3ccc(Cl)cc3)C2)cc1 (stereo not shown)	9.59%
COc1ccc(S(=O)(=O)c2ccc(OC)cc2)cc1	-0.753%
CCCN1C(=O)/C(=C/c2ccco2)SC1=Nc1ccc(OC)cc1	14.5%
COCc1cc(C)nc(N2CCN(c3ccccc3)CC2)c1C#N	5.99%
Cc1ccc(C(=O)C(C)OC(=O)CCS(=O)(=O)c2ccc(C)cc2)cc1 (stereo not shown)	12.1%
CCCCSc1nc2ccccc2[nH]1	16%
COc1ccc(C/C(N)=N/OC(=O)c2ccco2)cc1OC	15.5%
CCC(C)C(NC(=O)CCC(=O)OCC(=O)[C@@]1(O)CCC2[C@@H]3CCC4=CC(=O)C=C[C@]4(C)C3[C@@H](O)C[C@@]21C)C(=O)O (stereo partly shown)	16%
Cc1cc(NC(=O)C(Cl)(Cl)Cl)no1	13.8%
CCOc1ccc(CCNC(=O)COC(=O)c2nccnc2N)cc1OCC	10.7%
CC(=O)c1c(C)[nH]c(C(=O)OCC(=O)NCC(C)C)c1C	4.14%
O=S(=O)(NCC1CCCO1)c1ccc(S(=O)(=O)N(Cc2ccccn2)C2CC2)cc1 (stereo not shown)	10.1%
CCCc1ccc(C(=O)/C=C/N(C)C)cc1	1.49%
Cc1ccc(CNC(=S)N(C)C)cc1	10.1%
O=C(CCCC(=O)OCC(Cl)=C(Cl)Cl)Nc1ccccc1	9.63%
Cc1onc(-c2ccccc2)c1NC(=O)N(Cc1ccccc1)C(C)C	13.3%
O=C(O)c1ccc(/C=N/NC(=O)c2ccc(CN3c4cccc5cccc(c45)S3(=O)=O)cc2)cc1	11.7%
O=C(CSc1nnnn1C1CCCCC1)N1CCN(C(=O)c2ccco2)CC1	5.07%
Cc1cccc(NC(=O)C2CCCN(S(=O)(=O)c3c(C)nn(C)c3C)C2)n1 (stereo not shown)	10.9%
Cc1ccc(C)c(N(C)S(=O)(=O)c2ccc3c(c2)oc(=O)n3C)c1	12.1%
CC1CCN(c2ccccc2NC(=O)c2ccc(Br)o2)CC1	-3.61%
Cc1ccc(OCCNC(=O)c2ccccc2OCc2c(C)noc2C)cc1	14.3%

SMILES	hERG current change (%, negative = inhibition) at 1uM
COc1cccc(CNc2nc3ccccc3n2C)c1O	11.7%
COc1ccc(C2NC(=O)N(CCCC(=O)O)C(C)=C2C(=O)OCc2ccccc2)cc1 (stereo not shown)	9.48%
O=C(N/N=C/C1CC2CCC1C2)c1c[nH]c2ccccc12 (stereo not shown)	5.05%
C/C(=N\NC(=O)c1ccccc1O)c1c(O)n(Cc2ccccc2)c(=O)[nH]c1=O	9.52%
CCCC(=O)c1ccc(N2CCN(C(=O)OCC)CC2)c(F)c1	9.78%
O=C1CN(C(=O)/C=C/c2ccc(Cl)cc2)c2ccccc2N1	-18.7%
COc1ccccc1OCCOCCOc1c(C)cc(C)cc1Br	5.34%
Cc1ccc(-c2ccc(/C=C3\C(=O)ON=C3c3ccccc3)o2)c([N+](=O)[O-])c1	-10.8%
Cc1nc2ccccc2nc1OCC(=O)Nc1ccccc1	14.5%
Cc1ccc(N2CC(C(=O)Nc3cccnc3)CC2=O)cc1C (stereo not shown)	11.9%
O=[N+]([O-])c1cc(S(=O)(=O)Nc2ccccc2)ccc1NCc1ccccc1	13.3%
CN(C)C(=S)SCC(=O)Nc1ccc(Cl)cc1Cl	-0.0331%
Cc1cccc(-n2ncc3c(N4CCc5ccccc54)ncnc32)c1	11.9%
CCCOc1cccc(C(=O)Nc2cc(NC(=O)c3ccco3)ccc2OC)c1	13.9%
CCOc1ccccc1NC(=O)C(=O)N/N=C/c1cc(Br)ccc1O	16.2%
C=CCc1cc(C=O)cc(OC)c1OCc1ccc(Cl)cc1	3.5%
CCS(=O)(=O)NC(C)C(c1cccs1)N1CCN(c2ccc(OC)cc2)CC1 (stereo not shown)	0.652%
OCCCn1c(C2CCCN2c2nc(-c3ccc(F)cc3)cs2)nc2cc(Cl)c(N3CCCCC3)cc21 (stereo not shown)	11.7%
CCOc1ccc(Br)cc1S(=O)(=O)NC1CC(C)(C)NC(C)(C)C1	17%
Cc1cc(-c2cc(C(=O)NCc3ccccc3)on2)nc(NCC2CC2)n1	13.4%
CC1CCN(S(=O)(=O)c2ccc(C(=O)NCc3ccc4c(c3)OCO4)cc2)CC1	-8.17%
CC1=CCC2([N+](=O)[O-])CN(CC(=O)O)CC1([N+](=O)[O-])C2 (stereo not shown)	-3.41%
